# Some of the results follow.
# B1: Pbx2 (Cryptococcus neoformans) (protein)
# chain: AVSPLPSSTELVFYSQKRRRRRICSTATGSLSTPDPTRMTSDPYKRVGMRFSSVPRLLITFLSLLLLVSAAPPCVRFADYDSINQMFIDGGPGTKVLLCPNRLYRLSGPIIFTAADQEIATYGYPTGSERAVLRVEGRNTATAIQGDCRRCARVSVKNLVVDGNRKKLGRMRDFQLATGLVVLGGNEGQSIQNSWIKNPRGFTAIHIREGDKLQCSGARVEKNEIGPVGEEYDPEKDGDDPEMSPLGRPLADGVSIACRDSFIRDNTFRDNTDAAIVVYCSPGTLIHANHIFAQSLSAMAGILMVDSTPFNGDYTGTVVRSNIIDAVSRTIRVGIGIGPTVWSDDTETILTGGSVIGNGLKGRYMGYGIAAAGLKQWTIKDNWDEAKHEGRKSARCFDEPVNPDPIGLLYNRPTMEDCTVQSGFADHDFQYLVCIDGLYDKTNPPKHDPAPLAHDPSPTNAQEDNTVQQDGGDSKSKSIEQPREASDIEAEPSVEKMFSTGSEMMDDVLEHSHQRMHEVIDHLSRRIDILGAASAGKGSGDSKISEVLDPAMSSHLEKLQRKIEHLEFSLRSQIETAIQLRSAIQGWDQEMALVTDWEYDILLDVRHKLELSSYPHDQPLDPRLMRGQSYLNNEAVLVDDHSHPSLEGENLRAMSDRARLNANEEA
# Experiments:
# Test in all cases: glycan array binding signal (z-score within array); higher = stronger binding
# Details in all cases: glycan notation: IUPAC condensed, linker removed
# [1] = target: GalNAc(b1-4)GlcNAc(b1-2)Man(a1-3)[GalNAc(b1-4)GlcNAc(b1-2)Man(a1-6)]Man(b1-4)GlcNAc(b1-4)GlcNAc
# Summary of the method: (§1)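 The Consortium for Functional Glycomics database supplied 3228 glycan arrays, of which those lacking an available protein sequence were dropped. The binding signal, a within-array Z-score, was averaged across arrays of the same protein sequence and across linkers. Negative scores can be read as non-binding.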
# [2] = target: GalNAc(b1-4)GlcNAc(b1-3)GalNAc(b1-4)GlcNAc
# Summary of the method: as §1
# GalNAc(b1-4)GlcNAc6S = target: GalNAc(b1-4)GlcNAc6S
# Summary of the method: as §1
# GalNAc(b1-6)GalNAc = target: GalNAc(b1-6)GalNAc
# Summary of the method: as §1
# GalNAc3S(b1-4)GlcNAc = target: GalNAc3S(b1-4)GlcNAc
# Summary of the method: as §1
# GalNAc3S(b1-4)GlcNAc3S = target: GalNAc3S(b1-4)GlcNAc3S
# Summary of the method: as §1
# [3] = target: GalNAc3S(b1-4)[Fuc(a1-3)]GlcNAc
# Summary of the method: as §1
# GalNAc4S6S(b1-4)GlcNAc = target: GalNAc4S6S(b1-4)GlcNAc
# Summary of the method: as §1
# GalNAc6S(b1-4)GlcNAc = target: GalNAc6S(b1-4)GlcNAc
# Summary of the method: as §1
# Glc(a1-4)Glc = target: Glc(a1-4)Glc
# Summary of the method: as §1
# [4] = target: Glc(a1-4)Glc(a1-4)Glc(a1-4)Glc
# Summary of the method: as §1
# Glc(a1-6)Glc(a1-6)Glc = target: Glc(a1-6)Glc(a1-6)Glc
# Summary of the method: as §1
# [5] = target: Glc(a1-6)Glc(a1-6)Glc(a1-6)Glc
# Summary of the method: as §1
# Glc(b1-4)Glc = target: Glc(b1-4)Glc
# Summary of the method: as §1
# Glc(b1-6)Glc = target: Glc(b1-6)Glc
# Summary of the method: as §1
# GlcA(b1-3)Gal = target: GlcA(b1-3)Gal
# Summary of the method: as §1
# GlcA(b1-3)GlcNAc = target: GlcA(b1-3)GlcNAc
# Summary of the method: as §1
# GlcA(b1-6)Gal = target: GlcA(b1-6)Gal
# Summary of the method: as §1
# [6] = target: GlcA3S(b1-3)Gal(b1-4)GlcNAc(b1-2)Man
# Summary of the method: as §1
# [7] = target: GlcA3S(b1-3)Gal(b1-4)GlcNAc(b1-3)Gal(b1-4)Glc
# Summary of the method: as §1
# [8] = target: GlcNAc(a1-3)Gal(b1-4)GlcNAc
# Summary of the method: as §1
# [9] = target: GlcNAc(a1-4)Gal(b1-3)GlcNAc
# Summary of the method: as §1
# [10] = target: GlcNAc(a1-4)Gal(b1-4)GalNAc
# Summary of the method: as §1
# [11] = target: GlcNAc(a1-4)Gal(b1-4)GlcNAc
# Summary of the method: as §1
# [12] = target: GlcNAc(a1-4)Gal(b1-4)GlcNAc(b1-3)Gal(b1-4)Glc
# Summary of the method: as §1
# [13] = target: GlcNAc(a1-4)Gal(b1-4)GlcNAc(b1-3)Gal(b1-4)GlcNAc
# Summary of the method: as §1
# [14] = target: GlcNAc(a1-4)Gal(b1-4)GlcNAc(b1-3)Gal(b1-4)GlcNAc(b1-3)Gal(b1-4)GlcNAc
# Summary of the method: as §1
# [15] = target: GlcNAc(a1-4)Gal(b1-4)GlcNAc(b1-3)Gal(b1-4)[Fuc(a1-3)]GlcNAc(b1-3)Gal(b1-4)[Fuc(a1-3)]GlcNAc
# Summary of the method: as §1
# [16] = target: GlcNAc(a1-6)Gal(b1-4)GlcNAc
# Summary of the method: as §1
# [17] = target: GlcNAc(b1-2)Gal(b1-3)GalNAc
# Summary of the method: as §1
binder,measurement,setting,value
B1,glycan array binding signal (z-score),[1],-0.034
same,glycan array binding signal (z-score),[2],-0.336
same,glycan array binding signal (z-score),GalNAc(b1-4)GlcNAc6S,-0.649
same,glycan array binding signal (z-score),GalNAc(b1-6)GalNAc,-0.486
same,glycan array binding signal (z-score),GalNAc3S(b1-4)GlcNAc,-0.522
same,glycan array binding signal (z-score),GalNAc3S(b1-4)GlcNAc3S,0.7
same,glycan array binding signal (z-score),[3],-0.278
same,glycan array binding signal (z-score),GalNAc4S6S(b1-4)GlcNAc,6.54
same,glycan array binding signal (z-score),GalNAc6S(b1-4)GlcNAc,-0.15
same,glycan array binding signal (z-score),Glc(a1-4)Glc,-0.334
same,glycan array binding signal (z-score),[4],-0.694
same,glycan array binding signal (z-score),Glc(a1-6)Glc(a1-6)Glc,-0.298
same,glycan array binding signal (z-score),[5],0.474
same,glycan array binding signal (z-score),Glc(b1-4)Glc,-0.168
same,glycan array binding signal (z-score),Glc(b1-6)Glc,0.061
same,glycan array binding signal (z-score),GlcA(b1-3)Gal,0.144
same,glycan array binding signal (z-score),GlcA(b1-3)GlcNAc,-0.267
same,glycan array binding signal (z-score),GlcA(b1-6)Gal,0.01
same,glycan array binding signal (z-score),[6],0.255
same,glycan array binding signal (z-score),[7],-0.291
same,glycan array binding signal (z-score),[8],-0.122
same,glycan array binding signal (z-score),[9],-0.481
same,glycan array binding signal (z-score),[10],-0.373
same,glycan array binding signal (z-score),[11],-0.276
same,glycan array binding signal (z-score),[12],0.305
same,glycan array binding signal (z-score),[13],0.137
same,glycan array binding signal (z-score),[14],-0.217
same,glycan array binding signal (z-score),[15],0.012
same,glycan array binding signal (z-score),[16],-0.635
same,glycan array binding signal (z-score),[17],-0.076

# From the supplement of paper PMC8728848
